# In article PMC6919601, “Identification of Plasmodium dipeptidyl aminopeptidase allosteric inhibitors by high throughput screening” (PLoS ONE, 2019):
# The campaign covered roughly 110,000 compounds. About 230 (0.21%) showed an effect of 50% or more. Some of the results follow.
# Biological target: DPAP1 (Plasmodium falciparum, UniProt Q8IIJ9)
# Assay: primary screen, percent inhibition; read by cleavage of a fluorogenic dipeptide substrate; higher = more effect of the substance
# Design: species or system P. falciparum D10 trophozoite lysates; single well
# 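Further: 30 min substrate incubation versus DMSO and 10 µM JCP410 controls.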
# Sequence of DPAP1 (Q8IIJ9 whole entry, looked up): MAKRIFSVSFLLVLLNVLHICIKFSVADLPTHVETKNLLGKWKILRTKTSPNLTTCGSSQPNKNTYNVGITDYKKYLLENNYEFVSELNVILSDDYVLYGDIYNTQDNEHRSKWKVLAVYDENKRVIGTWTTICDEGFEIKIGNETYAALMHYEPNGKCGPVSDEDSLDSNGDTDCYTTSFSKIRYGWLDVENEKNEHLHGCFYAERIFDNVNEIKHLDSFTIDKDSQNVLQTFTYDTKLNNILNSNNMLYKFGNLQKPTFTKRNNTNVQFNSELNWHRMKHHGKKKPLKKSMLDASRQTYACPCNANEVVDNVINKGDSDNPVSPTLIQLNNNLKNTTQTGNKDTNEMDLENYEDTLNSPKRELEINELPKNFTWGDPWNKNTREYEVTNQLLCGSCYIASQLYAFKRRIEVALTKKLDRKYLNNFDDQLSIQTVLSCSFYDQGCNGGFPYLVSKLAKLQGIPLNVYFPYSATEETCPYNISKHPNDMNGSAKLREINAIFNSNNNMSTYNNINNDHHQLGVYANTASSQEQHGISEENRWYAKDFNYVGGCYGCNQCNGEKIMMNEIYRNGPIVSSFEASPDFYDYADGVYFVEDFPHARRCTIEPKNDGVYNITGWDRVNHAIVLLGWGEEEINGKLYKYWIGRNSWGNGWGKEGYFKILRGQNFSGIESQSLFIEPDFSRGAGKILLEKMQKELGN
row,Structure (SMILES),% Inhibition @ 10 uM [%]
1,CCOc1ccccc1C1C(C#N)=C(N)Oc2[nH]nc(-c3ccc(C)cc3)c21 (stereo not drawn),-2.78
2,CCOC(=O)C1=CN(C)C=C(C(=O)OCC)C1c1cccs1,-5.05
3,Cc1ccc(C(C)C)c(OCC(O)CN2C(C)CCCC2C)c1 (stereo not drawn),5
4,CCCNC(=O)CN(c1cccc(Cl)c1)S(=O)(=O)c1ccc(OC)cc1,1.94
5,N#CC1C(=O)N=C(N2CCN(Cc3ccc4c(c3)OCO4)CC2)NC12CCCCC2 (stereo not drawn),-7.15
6,CC(C)c1ccc(N(CC(=O)Nc2cccc3ccccc23)S(C)(=O)=O)cc1,-0.173
7,CCOc1ccc(C(=O)Nc2ccc(Br)cc2)cc1,11.5
8,CCn1ncc(C2=NOC(C(=O)NCc3ccc4c(c3)OCO4)C2)c1C (stereo not drawn),-1.37
9,C=CCn1c(SC)nc(=O)c(CC)c1O,4.03
10,c1ccc(CCn2cccc2)cc1,-6.42
11,O=C(COc1ccccc1Cl)N1CCN(c2ccccn2)CC1,-0.759
12,COc1ccc(-c2nnc3n(Cc4ccc(F)cc4)c(=O)c4ccccc4n23)c(O)c1,-1.72
13,CC(C)Oc1ccc(/C=C2\SC(=O)N(CC(=O)Nc3ccccc3)C2=O)cc1,-5.15
14,CC(C)N1C(=O)CCC1C(=O)N1CCC(Cc2ccccc2)CC1 (stereo not drawn),-1.34
15,COC(=O)c1ccc2nc(Nc3nc4c(OC)cccc4s3)sc2c1,0.458
16,Cc1ccc(S(=O)Cc2ccc(C(=O)NC3CCC(C)CC3)o2)cc1 (stereo not drawn),0.458
17,CN1C(=O)S/C(=C/c2ccc(-c3cccc(F)c3)o2)C1=O,1.28
18,OC(CN1CCOCC1)C12CC3CC(CC(C3)C1)C2 (stereo not drawn),-3.32
19,O=C1CCCCCN1CP(=O)(O)C1Cc2ccccc2C1,-1.69
20,CCN1C(=O)/C(=C2/Sc3ccc(Cl)cc3N2C)S/C1=N/c1ccc(Cl)cc1,-10.7
21,CCOc1ccc(-n2nnc(-c3nc(-c4cccnc4)no3)c2N)cc1,1.66
22,CCn1c(C)cc(/C=C2\SC(=O)N(CC(=O)Nc3ccc(F)cc3)C2=O)c1C,2.79
23,Cc1ccc2[nH]c(C)c(CCNC(=S)NC(C)(C)C)c2c1,-5.79
24,OCCN1CCN(c2ncnc3sc4c(c23)CCC4)CC1,-0.511
25,Cc1ccc(N(CC(=O)NC2CC3CCC2C3)S(C)(=O)=O)cc1Cl (stereo not drawn),5.99

row,Structure (SMILES),% Inhibition @ 10 uM [%]
1,Cc1nn(C(C)C(=O)NCCc2ccc(Cl)cc2)c(=O)c2c1sc1ccccc12 (stereo not drawn),-4.26
2,CC1=C(C(=O)NCCc2cccs2)C2(CCCCCC2)OC1=O,3.48
3,CC1(C)Cc2c(sc3nc(SCC(N)=O)n(CCc4ccccc4)c(=O)c23)CO1,5.9
4,CCCN1CCC(NC23CC4CC(CC(C4)C2)C3)CC1,-0.414
5,Cc1onc(-c2c(Cl)cccc2Cl)c1C(=O)Nc1ncccn1,2.08
6,COC(=O)C1=CNC=C(C(=O)OC)C1c1ccccc1Cl,-5.03
7,CN(C)CCNC(=O)c1ccc(S(=O)(=O)N2CCCCC2)cc1,-6.92
8,CN1CCN(Cc2cccc(Cl)c2)CC1,4.81
9,C=CCn1c(SCC(=O)Nc2nnc(CC)s2)nnc1-c1cccs1,2.18
10,COc1ccc(C(CC(=O)O)NS(=O)(=O)c2ccc(C)cc2)cc1OC (stereo not drawn),0.279
11,Cc1ccc(CNC(=O)Cn2ccc3cc(S(=O)(=O)N4CCCC4)ccc32)o1,-3.14
12,CCN1CCN(C(=O)Cn2cc(S(=O)(=O)N3CCCC3)c(S(=O)(=O)N3CCCC3)c2)CC1,0.802
13,CCOC(=O)C1=C(C)N(c2ccc(C)cc2)C(=O)C1,-0.631
14,Cc1ccccc1C(=O)Nc1ccc(-c2ccc([N+](=O)[O-])cc2)cc1,-4.33
15,COc1ccc(C2CC(=O)N=C(NC(=O)c3cccc(C)c3)N2)c(OC)c1OC (stereo not drawn),-1.59
16,CCOC(=O)c1sc(NC(=O)C(CC)Sc2nnc3c4ccccc4n(C)c3n2)nc1C (stereo not drawn),-6.95
17,O=C1C=C(NCCN2CCOCC2)CC(c2ccco2)C1 (stereo not drawn),3.96
18,CC1=C(C(=O)NC2CCCc3ccccc32)C2(CCCCC2)OC1=O (stereo not drawn),-0.138
19,C=CCO/C(O)=C1/C(C)=Nc2ncnn2C1c1ccncc1 (stereo not drawn),-3.37
20,Cc1cc(N2CCOCC2)nc(-c2ccc(Br)cc2)n1,-2.36
21,COc1ccc(C)cc1N(CC(=O)NCc1ccccc1C)S(=O)(=O)c1ccccc1,-1.61
22,CC(C)CC(C(=O)NCC#N)c1cccc(-c2csc(N3CCC(NC(C)(C)C)CC3)n2)c1 (stereo not drawn),1.7
23,Cc1cccc(C(=O)Nc2cccc(O)c2)c1,3.49
24,CCc1nn(CC(=O)NCC(C)c2ccccc2)c(=O)c2cc3sccc3n12 (stereo not drawn),-5.19
25,COc1ccc(-c2cc(C(=O)Nc3cc(C)nn3-c3ccccc3)no2)cc1,0.0654

row,Structure (SMILES),% Inhibition @ 10 uM [%]
1,Cc1cc(-c2ccc(C)c(S(=O)(=O)N3CCC(N(C)CC4CCCO4)CC3)c2)on1 (stereo not drawn),7.83
2,CN(Cc1ccccc1)S(=O)(=O)c1ccc(NC(=O)Cc2ccccc2)cc1,-0.185
3,COc1ccc(-c2cc(C)no2)cc1S(=O)(=O)N1CCC(N(C)CCN2CCOCC2)CC1,5.65
4,COc1ccc(CCNC(=O)C(=O)Nc2ccc3c(c2)OCCO3)cc1OC,2.22
5,CC(C)(C)Nc1nc(C(N)=O)nc(N2CCOCC2)n1,-4.62
6,COc1cccc(C(=O)Nc2nc3ccc(Cl)cc3s2)c1,4.12
7,Cc1cc(NC(=O)c2onc(C)c2Cl)n(-c2ccccc2)n1,3.2
8,C=CCSc1nc(C)c2cc(C)ccc2n1,5.46
9,N=C1S/C(=C\c2ccc(-c3ccccc3F)o2)C(=O)N1c1nccs1,-4.72
10,COc1ccc(NC(=O)CSc2nc(C)c(Cc3ccccc3)c(O)n2)cc1,-0.413
11,CCOc1ccccc1C(=O)Nc1cc(C(F)(F)F)ccc1Cl,1.84
12,Cn1c(=O)c2c(nc(N3CCOCC3)n2CCCNC2=NCCCC2)n(C)c1=O,-1.84
13,Cc1ccc(C(=O)N/C(=C\c2cccs2)C(=O)NC2CCN(Cc3ccccc3)CC2)cc1C,-2.68
14,CCc1cccc(CC)c1NC(=O)C(C)NS(=O)(=O)c1ccc(C)cc1 (stereo not drawn),-0.318
15,CC(C)N(Cc1nc(-c2ccccc2)no1)C(=O)CCCN1C(=O)c2ccccc2C1=O,-7.55
16,CC(C)C[C@H](NC(=O)OCc1ccccc1)C(=O)NCC#N,0.556
17,COc1ccc(C(=O)Nc2cc(-c3ccccc3)[nH]n2)cc1,5.45
18,O=C(NC1CCCC1)c1ccc(CSc2nc3ccncc3[nH]2)cc1,4.95
19,O=C(O)c1cccc(NC(=O)c2ccccc2F)c1,0.708
20,C=CC[C@@H]1Cc2c(Br)ccc(Br)c2[C@@H](CC=C)N1,0.279
21,O=C(O)c1cccc(NC2=C(Cl)C(=O)N(c3ccc(Cl)cc3Cl)C2=O)c1,-4.48
22,Cc1ccc(-c2csc(/C(C#N)=C/c3ccc(Cl)cc3)n2)c(C)c1,-8.12
23,O=C(Nc1ccccc1C(=O)O)c1cc(S(=O)(=O)N2CCCCC2)c(Cl)cc1Cl,-5.23
24,CC1CCc2c(C(=O)NC3CCN(Cc4ccccc4)CC3)csc2C1 (stereo not drawn),-1.65
25,Cc1noc(C)c1S(=O)(=O)NCc1ccc(Cl)cc1,-0.426

row,Structure (SMILES),% Inhibition @ 10 uM [%]
1,CN1CCN(CCCNC(=O)C2c3ccccc3C(=O)N(C3CCCC3)C2c2cccs2)CC1 (stereo not drawn),3.04
2,CC1=NN(c2cc(C)nc(-c3ccccc3O)n2)C(=O)C1,-5.62
3,Cc1cc(C)c2c3c(sc2n1)C(c1ccccc1)C(C#N)=C(N)O3 (stereo not drawn),-3.9
4,CN1C(N)=NC(=O)/C1=C/c1ccc2c(c1)OCO2,-4.03
5,CCc1ccc2[nH]cc(CCN)c2c1,0.847
6,O=C(O)C1C2CCC(C2)C1C(=O)Nc1nc2ccccc2s1 (stereo not drawn),-0.996
7,CCN(CC)CCOc1cccc(Cl)c1Cl,3.76
8,CN1CCN(S(=O)(=O)c2ccc3c(c2)C(=O)c2ccccc2C3=O)CC1,-1.98
9,COc1ccc(CCNC(=O)CCCc2nnc3n(C)c(=O)c4sccc4n23)cc1OC,1.68
10,COc1ccc(N2C(=O)C3ON(c4ccccc4)C(c4ccco4)C3C2=O)cc1 (stereo not drawn),4.33
11,CCN(CC)c1ccc(C2C(C#N)=C(N)N(c3ccc(Cl)cc3)C3=C2C(=O)CC(C)(C)C3)cc1 (stereo not drawn),3.15
12,Cc1ccc(-c2csc(NC(=O)C3CC4CCC3C4)n2)cc1 (stereo not drawn),-8.86
13,O=C(CSc1ccccc1C(=O)O)Nc1ccccc1,-6.43
14,COc1ccc(C(=O)N2CCN(C(=O)c3ccccc3F)CC2)cc1,-3.24
15,CCOC(=O)c1c(NC(=O)C(C)(C)C)sc2c1CCN(C(=O)OCC)C2,1.72
16,Cc1cc(S(=O)(=O)NCCSCc2ccc(Cl)cc2)ccc1F,2.18
17,O=C(O)c1ccc(C(=O)c2ccc3c(c2)C(=O)N(c2cnc(O)nc2O)C3=O)cc1,4.42
18,Cc1cccc(NC(=O)COc2ccc(C)c(C)c2)c1,2.55
19,COc1cccc2c1oc(=O)c1c(NC(C)=O)nc3c(c12)CCCC3,0.415
20,N#CCNC(=O)[C@H](CSCc1ccccc1)NC(=O)c1ccc2ccccc2n1,1.35
21,CC1CCCCN1S(=O)(=O)c1ccc(NC(=O)c2ccco2)cc1 (stereo not drawn),1.57
22,COc1ccc2cc(CCNS(C)(=O)=O)c(O)nc2c1,0.13
23,CCOc1ccc(C2C(C#N)=C(N)Oc3[nH]nc(-c4ccccc4)c32)cc1OCC (stereo not drawn),5.49
24,CC(C)C[C@H](NC(=O)c1ccc(C2CCCCC2)cc1)C(=O)NCC#N,-8.26
